{
  "source": "PubChem BioAssay",
  "note": "The inconclusive results got no clear call from the source; some entries with a clear call stand among them for comparison. Activity calls are given as the source filed them.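 Rule for the calls: active = viability at or under a set limit in both replicates, limit being median viability minus 3 SD (cut at about 48% in these data, passing the limit was not always enough); inconclusive = at or under the limit in just one replicate; inactive = at or above the limit in both replicates.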",
  "data": [
    {"experiment": "H69AR cell proliferation blockers – human, duplicate replicates, primary screen (AID 580);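 note: 100% = mean luminescence of untreated wells and 0% = no signal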", "settings": "H69AR lung tumor cells viability, ATP luminescence, 72 h; at 10 µM; hits give low values", "values": [
      {"smiles": "Cc1coc(NC(=O)CSc2nc(-c3ccncc3)cc(C(F)(F)F)c2C#N)n1", "viability": "inactive: 71.8%"},
      {"smiles": "C(#Cc1ccccc1)Cn1nnc2ccccc21", "viability": "inactive: 83.1%"},
      {"smiles": "C/C(=C\\C(=O)c1ccc(F)cc1)Nc1ccc(N2CCOCC2)cc1", "viability": "inactive: 90.9%"},
      {"smiles": "CCOC(=O)Cc1cc(=O)n2[nH]c(C)c(-c3ccc(OC)cc3)c2n1", "viability": "inactive: 92.6%"},
      {"smiles": "O=C(Nc1ccc(-c2nc3ncccc3o2)cc1)c1ccc(Br)o1", "viability": "inconclusive: 49.2%"},
      {"smiles": "N#Cc1cc2c(nc1SCC(=O)Nc1sc3c(c1C#N)CCC3)CCCCC2", "viability": "inconclusive: 40.9%"},
      {"smiles": "O=C(Nc1ccc2[nH]c3c(c2c1)CCCC3)c1ccco1", "viability": "inconclusive: 63.1%"},
      {"smiles": "Cc1ccc(F)cc1NC(=O)c1cccc2nccnc12", "viability": "inactive: 91.1%"},
      {"smiles": "CCc1cc2c(=O)c(-c3nc4ccccc4[nH]3)coc2cc1OC(=O)N1CCOCC1", "viability": "inconclusive: 57.7%"},
      {"smiles": "Cn1c([N+](=O)[O-])cnc1COC(N)=O", "viability": "inactive: 102%"},
      {"smiles": "Cc1ccc2cc(C(c3nnnn3C3CCCC3)N3CCN(c4ccc(F)cc4)CC3)c(=O)[nH]c2c1", "note": "(stereo not given)", "viability": "inactive: 67.6%"},
      {"smiles": "N#CC1=C(SCC(=O)NC23CC4CC(CC(C4)C2)C3)NC(=O)C(C#N)C12CCCCC2", "note": "(stereo not given)", "viability": "inconclusive: 35.8%"},
      {"smiles": "O=C(c1cc2nc(-c3ccco3)cc(C(F)(F)F)n2n1)N1CCN(c2ccccn2)CC1", "viability": "inconclusive: 54.3%"},
      {"smiles": "NC(=O)SCC(=O)Nc1cccc(Cl)c1", "viability": "inconclusive: 66.4%"},
      {"smiles": "Cc1cc2nc(C3CCN(CC4COc5ccccc5O4)CC3)[nH]c2cc1C", "note": "(stereo not given)", "viability": "inactive: 77.8%"},
      {"smiles": "CCOC(=O)C1=C(Cn2cnc3ccccc32)NC(=O)NC1c1cc(C)ccc1C", "note": "(stereo not given)", "viability": "inconclusive: 42.5%"},
      {"smiles": "Cc1ccc2c(C)nc(Nc3nc(CSc4nnnn4-c4ccccc4)cc(=O)[nH]3)nc2c1", "viability": "inconclusive: 50.7%"},
      {"smiles": "CCn1c(NC(=O)c2cccc(Cn3cc(Cl)cn3)c2)nc2ccccc21", "viability": "inconclusive: 56.5%"},
      {"smiles": "CCOc1ccccc1-n1nnnc1SCC(=O)Nc1cc2oc3ccccc3c2cc1OC", "viability": "inconclusive: 43.6%"},
      {"smiles": "CC(C)(C)OC(=O)N1CC=C2C(C#N)=C(N)C(C#N)(C#N)C(c3cccs3)C2C1", "note": "(stereo not given)", "viability": "inconclusive: 52.8%"},
      {"smiles": "Cc1cc2oc(=O)cc(CN3CCCCC3)c2cc1C(C)C", "viability": "inconclusive: 52.1%"},
      {"smiles": "O=C(CSCCSCC(=O)c1ccco1)c1ccco1", "viability": "inactive: 101%"},
      {"smiles": "CCOC(=O)c1[nH]c(CSc2nnc(-c3ccc(OC)cc3)o2)c(C(=O)OCC)c1C", "viability": "inconclusive: 38%"},
      {"smiles": "CCCc1[nH]nc2c1C(c1cn[nH]c1-c1ccc(F)cc1)C(C#N)=C(N)O2", "note": "(stereo not given)", "viability": "inconclusive: 45.4%"},
      {"smiles": "CCOC(=O)c1[nH]c(C)c(C(=O)Nc2ccccc2F)c1C", "viability": "active: 16.1%"},
      {"smiles": "CCOC(=O)CSc1nc2ccccc2c(=O)n1CCN1CCOCC1", "viability": "inactive: 95.4%"},
      {"smiles": "CCc1nnc(NC(=O)CSc2nc3ccccc3s2)s1", "viability": "inactive: 101%"},
      {"smiles": "CCOc1ccc2nc(SCC#N)c(C#N)cc2c1", "viability": "inactive: 100%"},
      {"smiles": "C=C(C)C1Cc2c(C)nn(-c3nc(C)cc(C)n3)c2C1", "note": "(stereo not given)", "viability": "inconclusive: 52.3%"},
      {"smiles": "COc1ccc(C)cc1S(=O)(=O)N(CC(=O)O)c1ccccc1", "viability": "inactive: 86.1%"},
      {"smiles": "Cc1ccc(CNC(=O)c2coc(=O)c3ccccc23)o1", "viability": "inconclusive: 42.4%"},
      {"smiles": "COc1cc(C2Nc3cccc4cccc(c34)N2)cc(OC)c1O", "viability": "inconclusive: 55.2%"},
      {"smiles": "CC(C)(C)c1cc(NC(=O)c2cc(F)c(F)c(F)c2F)no1", "viability": "inconclusive: 50.2%"},
      {"smiles": "O=C(COc1ccccc1Cl)N1CCCC1", "viability": "inactive: 91.9%"},
      {"smiles": "Cc1ccc(O)c(-c2cc(C(=O)Nc3ccc(S(=O)(=O)N4CC(C)OC(C)C4)cc3)[nH]n2)c1", "note": "(stereo not given)", "viability": "active: 34.8%"},
      {"smiles": "Cn1c(=O)[nH]c(=O)c2c1nc(Br)n2CCCSc1nc2ccccc2o1", "viability": "active: 23.8%"},
      {"smiles": "O=c1c2ccccc2nc(-c2cccc(Cl)c2)n1O", "viability": "inconclusive: 45.9%"},
      {"smiles": "COc1ccc2c(c1OC)C(=O)O[C@@H]2[C@H]1c2c(cc3c(c2OC)OCO3)CCN1C", "viability": "inconclusive: 31.9%"},
      {"smiles": "CCOC(=O)CSc1nc2c(c(-c3ccc(C)o3)c1C#N)CCCC2", "viability": "inactive: 73.8%"},
      {"smiles": "CCOc1cc(NC(=O)c2ccco2)c(OCC)cc1NC(=O)COc1ccccc1C", "viability": "active: 7.87%"}
    ]}
  ]
}
